The supplement of paper PMC3334620
The full ranking holds about 33,000 sequences; the median of “E-score (-0.5 to 0.5)” is about -0.016, and the highest 2% start at about 0.32. The list shows a part of the results.

Each sequence was assayed against T1, Stp1 (UniProt B3LFK1) (assay: PBM E-score (8-mer binding enrichment) (E-score (-0.5 to 0.5)); higher = stronger / more preferred TF binding; most listed sequences are background and not binding sites). Details: protein concentration: 200 nM; construct: GST-full length.
T1 sequence: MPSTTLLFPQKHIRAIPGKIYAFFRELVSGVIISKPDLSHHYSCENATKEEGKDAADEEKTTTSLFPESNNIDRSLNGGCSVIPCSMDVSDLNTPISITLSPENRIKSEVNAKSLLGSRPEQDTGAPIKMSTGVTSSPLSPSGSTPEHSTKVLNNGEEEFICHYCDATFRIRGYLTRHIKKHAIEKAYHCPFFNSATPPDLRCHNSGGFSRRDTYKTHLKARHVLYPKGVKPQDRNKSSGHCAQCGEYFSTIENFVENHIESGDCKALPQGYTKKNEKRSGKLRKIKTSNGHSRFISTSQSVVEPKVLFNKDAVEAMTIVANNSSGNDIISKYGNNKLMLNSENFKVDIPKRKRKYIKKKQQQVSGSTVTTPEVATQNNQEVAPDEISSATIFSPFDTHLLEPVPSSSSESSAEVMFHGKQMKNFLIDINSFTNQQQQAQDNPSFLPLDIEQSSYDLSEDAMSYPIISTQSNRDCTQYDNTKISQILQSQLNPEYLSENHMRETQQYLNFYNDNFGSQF
Procedure, shortened: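 The E-score, a modified Wilcoxon-Mann-Whitney statistic, was computed by the Universal PBM Analysis Suite for every ungapped eight-base word pooled with its reverse complement. Scans behind it were normalised with masliner after bound GST-tagged yeast transcription factors were detected with fluorescent anti-GST. The proteins, at about 100-200 nM, had been applied to universal all-10-mer Agilent arrays made double-stranded by primer extension.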

**Q.** How did the “PBM E-score” value turn out when CCAGTGTC was run?
**A.** -0.112

**Q.** AATCCGAT was tested. Which “PBM E-score” value did it give?
**A.** 0.0131

**Q.** How did the “PBM E-score” value turn out when GCAAACTA was run?
**A.** 0.00873

**Q.** How did the “PBM E-score” value turn out when CAGAAACA was run?
**A.** 0.175

**Q.** How did the “PBM E-score” value turn out when GCGTGGCC was run?
**A.** 0.033

**Q.** Which “PBM E-score” value does the source give for ATTGGTAA here?
**A.** 0.11

**Q.** With AGCGATGC as the sequence, how does the “PBM E-score” value read?
**A.** -0.0717

**Q.** For ACGGGGAA, which “PBM E-score” value is on record?
**A.** -0.0268

**Q.** AAACCAGA was tested. Which “PBM E-score” value did it give?
**A.** -0.0442

**Q.** Which “PBM E-score” value does the source give for ACAGATGA here?
**A.** -0.159

**Q.** AACACCCT was tested. Which “PBM E-score” value did it give?
**A.** -0.281

**Q.** For CTTCATCC, which “PBM E-score” value is on record?
**A.** -0.151

**Q.** CTCGAGCA was tested. Which “PBM E-score” value did it give?
**A.** 0.143

**Q.** How did the “PBM E-score” value turn out when ACAAGTGC was run?
**A.** -0.127

**Q.** For CGGCCTTA, which “PBM E-score” value is on record?
**A.** 0.293

**Q.** With AGAATCAT as the sequence, how does the “PBM E-score” value read?
**A.** -0.12

**Q.** How did the “PBM E-score” value turn out when GCACAGCA was run?
**A.** 0.183

**Q.** With AACAACGT as the sequence, how does the “PBM E-score” value read?
**A.** -0.046

**Q.** For ACTGGGAC, which “PBM E-score” value is on record?
**A.** -0.288

**Q.** With AGACGATC as the sequence, how does the “PBM E-score” value read?
**A.** -0.251

**Q.** For CATACCAA, which “PBM E-score” value is on record?
**A.** -0.0291

**Q.** With CTGCGTTC as the sequence, how does the “PBM E-score” value read?
**A.** 0.0719

**Q.** CCGGAGTA was tested. Which “PBM E-score” value did it give?
**A.** -0.0072

**Q.** With GCACAGAA as the sequence, how does the “PBM E-score” value read?
**A.** 0.0354

**Q.** Which “PBM E-score” value does the source give for ACGTGCCA here?
**A.** 0.148

**Q.** For GGACCGTA, which “PBM E-score” value is on record?
**A.** -0.17

**Q.** Which “PBM E-score” value does the source give for CCCGCGGG here?
**A.** 0.104

**Q.** With ATCGTCTG as the sequence, how does the “PBM E-score” value read?
**A.** 0.0798

**Q.** Which “PBM E-score” value does the source give for CGTCAGTC here?
**A.** -0.169

**Q.** How did the “PBM E-score” value turn out when GGCGCCAA was run?
**A.** 0.379

**Q.** With CGCACACA as the sequence, how does the “PBM E-score” value read?
**A.** 0.0485

**Q.** With AAGTTTCA as the sequence, how does the “PBM E-score” value read?
**A.** 0.178

**Q.** For GCTTGCTA, which “PBM E-score” value is on record?
**A.** -0.194

**Q.** For AGTTGAGA, which “PBM E-score” value is on record?
**A.** -0.0601

**Q.** How did the “PBM E-score” value turn out when ATATTCGG was run?
**A.** 0.0873

**Q.** ATTTACGC was tested. Which “PBM E-score” value did it give?
**A.** 0.154

**Q.** With TATACTAA as the sequence, how does the “PBM E-score” value read?
**A.** 0.00063

**Q.** For GGCGGCCA, which “PBM E-score” value is on record?
**A.** -0.0116

**Q.** With CATGCTAC as the sequence, how does the “PBM E-score” value read?
**A.** -0.135

**Q.** AGGCCCAG was tested. Which “PBM E-score” value did it give?
**A.** -0.314

**Q.** Which “PBM E-score” value does the source give for GATAGCCA here?
**A.** -0.166

**Q.** With CTGATAAA as the sequence, how does the “PBM E-score” value read?
**A.** 0.0491

**Q.** How did the “PBM E-score” value turn out when ACTATATA was run?
**A.** 0.243

**Q.** CCCGACCC was tested. Which “PBM E-score” value did it give?
**A.** -0.208

**Q.** Which “PBM E-score” value does the source give for ACCGACAG here?
**A.** 0.0513

**Q.** With ACCGAGTC as the sequence, how does the “PBM E-score” value read?
**A.** -0.367

**Q.** TAACAGTA was tested. Which “PBM E-score” value did it give?
**A.** 0.129

**Q.** Which “PBM E-score” value does the source give for CGTGCCCC here?
**A.** 0.0449

**Q.** CGCTACGA was tested. Which “PBM E-score” value did it give?
**A.** -0.0206

**Q.** CTGTGTGC was tested. Which “PBM E-score” value did it give?
**A.** -0.146

**Q.** With CACAGGAG as the sequence, how does the “PBM E-score” value read?
**A.** 0.0281

**Q.** For CTCGAACC, which “PBM E-score” value is on record?
**A.** -0.104

**Q.** With ATGCGTCC as the sequence, how does the “PBM E-score” value read?
**A.** -0.0136

**Q.** ATAGTAAC was tested. Which “PBM E-score” value did it give?
**A.** 0.0271

**Q.** Which “PBM E-score” value does the source give for GGACGCAA here?
**A.** -0.123

**Q.** With AGAGTAAA as the sequence, how does the “PBM E-score” value read?
**A.** 0.0654

**Q.** GCGAGCTA was tested. Which “PBM E-score” value did it give?
**A.** -0.0831

**Q.** ACAGTCAA was tested. Which “PBM E-score” value did it give?
**A.** -0.0726

**Q.** For CATTGTCG, which “PBM E-score” value is on record?
**A.** 0.0525

**Q.** For AACACAAA, which “PBM E-score” value is on record?
**A.** 0.0739

**Q.** For TCAAAGCA, which “PBM E-score” value is on record?
**A.** 0.0184

**Q.** Which “PBM E-score” value does the source give for ACGTTACT here?
**A.** -0.00204

**Q.** How did the “PBM E-score” value turn out when CGTGTCAG was run?
**A.** 0.119

**Q.** For AAATTCCT, which “PBM E-score” value is on record?
**A.** 0.0162

**Q.** How did the “PBM E-score” value turn out when ATAGTTCG was run?
**A.** 0.0223

**Q.** Which “PBM E-score” value does the source give for CTGTGAAA here?
**A.** 0.182

**Q.** ACGCACGA was tested. Which “PBM E-score” value did it give?
**A.** 0.237

**Q.** How did the “PBM E-score” value turn out when CAGGCTAG was run?
**A.** -0.334

**Q.** How did the “PBM E-score” value turn out when GAACACTA was run?
**A.** -0.0215

**Q.** ATTGTTTA was tested. Which “PBM E-score” value did it give?
**A.** 0.111

**Q.** AGGTATTG was tested. Which “PBM E-score” value did it give?
**A.** -0.0693

**Q.** For ACGACCTC, which “PBM E-score” value is on record?
**A.** 0.0267

**Q.** With CATTGTAG as the sequence, how does the “PBM E-score” value read?
**A.** 0.133

**Q.** CTTGTTCC was tested. Which “PBM E-score” value did it give?
**A.** -0.135

**Q.** Which “PBM E-score” value does the source give for GAAACTAC here?
**A.** 0.145

**Q.** With CCTCCAGC as the sequence, how does the “PBM E-score” value read?
**A.** -0.217

**Q.** ATATACAT was tested. Which “PBM E-score” value did it give?
**A.** 0.107

**Q.** Which “PBM E-score” value does the source give for GAATATCA here?
**A.** -0.0305

**Q.** How did the “PBM E-score” value turn out when CTGGACGC was run?
**A.** -0.111

**Q.** For CGTGAAGA, which “PBM E-score” value is on record?
**A.** 0.0737

**Q.** How did the “PBM E-score” value turn out when GGACCGGA was run?
**A.** -0.234

**Q.** For AGGACCGG, which “PBM E-score” value is on record?
**A.** -0.406

**Q.** For ATGTCTCC, which “PBM E-score” value is on record?
**A.** -0.165

**Q.** For ACCGGGAG, which “PBM E-score” value is on record?
**A.** -0.355

**Q.** TAACACTA was tested. Which “PBM E-score” value did it give?
**A.** 0.244

**Q.** For ACCAAAAC, which “PBM E-score” value is on record?
**A.** 0.081
